Read-outs that look alike come from different tables or passages of the source.

Assay [1] relates to HIV OGH double reporter virus in SupT1 cells. The class given is cell-based, HIV-1.
Assay [2] concerns HIV-1 double reporter virus (OGH) in SupT1 cells. The class given is cell-based. The following applies: SupT1, LEDGIN added during virus production.
Assay [3] has as its system HIV-1 double reporter virus (OGH) in THP1 cells. The class given is cell-based. Conditions: THP1, LEDGIN added during virus production.

On to `CCCC(C(=O)O)c1c(C)nc2ccc(Cl)cc2c1-c1ccccc1` (stereo not shown) [CX014442, 2-(6-chloro-2-methyl-4-phenylquinolin-3-yl)pentanoic acid], for which the “fraction of latently infected cells (% eGFP−, mKO2+ cells)/(% mKO2+ cells)*100” value in assay [1] (SupT1, LEDGIN addition, trend) is reported as “increase”; in assay [1] (SupT1, concentration of 25 μM), 100%. The “fraction of quiescent cells (% eGFP−, mKO2+ cells)/(% mKO2+ cells)*100” value in assay [2] and in assay [3] was “increased proportionally with the concentration” in each case.

(Values after patent publication US12465604B2 (priority 2015, dated 2025).)
